Laboratory results from the supplement of paper PMC12632987.
Over roughly 1,800 sequences, “median log2 fold change of GCK-ALFA target abundance (FLAG IP / Myc IP barcode read proportion)” has its median near 0.14; the lowest 2% begin near -0.84. Some of the results follow.

T1: TRAF2, Q12933
T1 chain: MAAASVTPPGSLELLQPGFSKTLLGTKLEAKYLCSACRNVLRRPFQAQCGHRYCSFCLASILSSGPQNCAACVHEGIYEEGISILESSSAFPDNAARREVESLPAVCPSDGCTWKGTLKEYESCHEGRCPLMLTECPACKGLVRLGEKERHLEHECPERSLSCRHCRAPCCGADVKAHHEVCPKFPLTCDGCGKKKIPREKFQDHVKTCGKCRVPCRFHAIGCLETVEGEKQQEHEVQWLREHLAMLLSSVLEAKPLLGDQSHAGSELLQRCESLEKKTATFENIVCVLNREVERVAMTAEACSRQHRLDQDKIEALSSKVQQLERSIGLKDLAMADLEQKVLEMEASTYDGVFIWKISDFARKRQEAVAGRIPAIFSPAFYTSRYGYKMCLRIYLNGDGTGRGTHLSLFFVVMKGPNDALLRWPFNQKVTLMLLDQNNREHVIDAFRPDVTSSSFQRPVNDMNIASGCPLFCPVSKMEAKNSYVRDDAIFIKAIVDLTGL

B1: traf2_out_17_178_1660 (protein)
chain: TKEEYRKKISELTDKLIDLAEKAAQKALELLEAEGDASEEELAQLREAQRRGSANDVKALIKRWIPKSSNSEELQALLDEFEKEYRKLSKEIAEAYKKYE
B2: traf2_out_18_64_1955 (protein)
chain: SELDEEIDRLVDEMDERRRLRLALARALQARAAADPAWQPLLDYFHAHVNDIGAAGARRMLALLAAGAPPAELRAVMEEDLGEGRELQRRLAELLEKREK
B3: traf2_out_20_3_2069 (protein)
chain: EELLKEAEKELEKAIKLLKEAAKKADKETAKKLKKLIEKLKKSKELSVDDRLVVVSEVRREVRELAEKAKKAGKEELAKILEKAAEELNRAAQLLYKILE
B4: traf2_out_11_169_776 (protein)
chain: EEAEKNRKINDKALELNDEAKKELEKEALALAKEEGLDVEEIKKIFEENKNKSLSAVAAALIEYFKSKGKEDAAKKILEKYEELKEKINKESSEFIKSLE
B5: traf2_out_11_155_692 (protein)
chain: EKKRELNNELVDEMTEIEDKLKEEVLKIVREAAAAHPEHKAELEALIASSKGLSGRSFARQAAQLFKRLGLEEEAARVEELLEKAQKEMNEAYKKIEAKI
B6: traf2_out_20_3_2107 (protein)
chain: KELEEELEKELEEAIKLLEEAAKLADEETAKRLEELRKRVEASRELPYTDRLVALSEVRREVLALAQEAEAAGKEELAKVLEEAADELNKAMNLLMKIIE
B7: traf2_out_11_104_644 (protein)
chain: LTKEQARELNDFAMEANDKAKELLAEVAAFLEERGHEEEAARVKAALAHPGAGASTFRNLLEELLPKLDEEAKEKAEEAIEKIEELIKEVSKKLNELEKK
B8: traf2_out_16_104_1379 (protein)
chain: EEERRKEFEEIIERLREIAERAGRLANEIYKLMETASPEEKKKLSDLLVEVSELRRRALQAAEEAERALKEGGDLEEFRKRLEELEKRLKELEERVKKLK

Biological target: T1, TRAF2, Q12933
Assay: median log2 fold change of GCK-ALFA target abundance (FLAG IP / Myc IP barcode read proportion) (log2 ratio); each designed protein is fused to an ALFA-tag nanobody in HEK293 cells to bring the named protein to FLAG-tagged glucokinase (GCK); Myc marks an untargeted standard; higher = target protein stabilised (more abundant)
Conditions: target protein: 3xFLAG-MCP-GCK-ALFA reporter; HEK293 landing pad (RPLP)
Outline: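 HEK293 landing-pad cells received a recombined binder library fused to the ALFA nanobody and were induced with 2 μg mL^−1 doxycycline, then transfected with a plasmid encoding a FLAG-tagged target and a Myc-tagged standard. Lysates were collected after 48 h for anti-FLAG and anti-Myc immunoprecipitation, and the circular RNA barcodes were reverse transcribed, amplified and sequenced. Target abundance for each binder is the median log2 ratio of FLAG to Myc barcode read proportions. Barcodes had to reach a proportion of at least 10^−7 in both replicates, each binder needed at least 3 barcodes per replicate, a pseudocount of 10^−6 was applied, and the two replicates were pooled.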

| Binder | median log2 fold change |
| --- | --- |
| B1 | -0.0358 |
| B2 | 0.163 |
| B3 | 0.339 |
| B4 | 0.418 |
| B5 | 0.102 |
| B6 | 0.327 |
| B7 | 0.393 |
| B8 | 0.102 |
